Experimental data from article PMC4336329 (PLoS ONE, 2015).
The whole screen tested about 310,000 compounds, of which about 14,000 (4.5%) showed an effect of 50% or more. Effects have a minus sign here. Some of the results follow.

Target: human ether-à-go-go-related gene (hERG) potassium channel (human, UniProt Q12809)
Assay: primary screen, population patch clamp on CHO cells stably expressing hERG
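Also: peak tail current of the secondary pulse compared with the same well before compound.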

Chain of human ether-à-go-go-related gene (hERG) potassium channel (Q12809 whole entry, looked up): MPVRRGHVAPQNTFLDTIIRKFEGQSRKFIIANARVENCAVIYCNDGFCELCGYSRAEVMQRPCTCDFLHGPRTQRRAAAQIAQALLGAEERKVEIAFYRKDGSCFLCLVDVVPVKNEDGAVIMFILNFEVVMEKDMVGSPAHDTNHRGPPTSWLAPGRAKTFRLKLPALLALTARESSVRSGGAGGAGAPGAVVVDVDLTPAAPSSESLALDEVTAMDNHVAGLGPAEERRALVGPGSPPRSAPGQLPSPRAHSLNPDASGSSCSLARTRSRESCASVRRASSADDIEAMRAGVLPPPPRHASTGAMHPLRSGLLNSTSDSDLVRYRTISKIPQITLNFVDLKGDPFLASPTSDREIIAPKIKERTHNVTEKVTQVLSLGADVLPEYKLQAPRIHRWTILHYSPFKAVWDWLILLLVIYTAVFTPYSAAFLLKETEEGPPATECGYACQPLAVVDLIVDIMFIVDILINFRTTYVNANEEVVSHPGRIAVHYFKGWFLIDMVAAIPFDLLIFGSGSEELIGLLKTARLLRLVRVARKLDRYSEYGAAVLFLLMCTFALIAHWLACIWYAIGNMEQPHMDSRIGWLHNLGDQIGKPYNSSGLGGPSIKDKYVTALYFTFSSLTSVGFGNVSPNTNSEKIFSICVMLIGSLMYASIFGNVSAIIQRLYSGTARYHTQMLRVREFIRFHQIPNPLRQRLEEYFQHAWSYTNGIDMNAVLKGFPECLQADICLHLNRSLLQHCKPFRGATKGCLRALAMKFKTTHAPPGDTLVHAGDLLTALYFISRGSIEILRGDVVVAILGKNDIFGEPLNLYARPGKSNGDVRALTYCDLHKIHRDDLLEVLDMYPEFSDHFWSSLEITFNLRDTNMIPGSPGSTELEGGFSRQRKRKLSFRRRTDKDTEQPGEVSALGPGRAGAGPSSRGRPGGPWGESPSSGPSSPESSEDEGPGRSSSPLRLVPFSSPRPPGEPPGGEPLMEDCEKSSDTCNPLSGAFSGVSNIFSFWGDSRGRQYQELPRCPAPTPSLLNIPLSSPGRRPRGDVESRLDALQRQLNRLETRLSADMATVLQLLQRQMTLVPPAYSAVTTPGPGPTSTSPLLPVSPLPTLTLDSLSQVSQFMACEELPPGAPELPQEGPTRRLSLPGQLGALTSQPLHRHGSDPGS

| Compound | hERG current change (%, negative = inhibition) at 10uM [%] |
| --- | --- |
| N/C(=N\OC(=O)c1ccccc1F)c1ccc([N+](=O)[O-])cc1 | 6.99 |
| CCCOP(=O)(OCCC)C(Nc1ccc(C(=O)O)cc1)c1ccccc1 (stereo not shown) | 3.93 |
| Cl.c1ccc2c(CN3CCCCC3)csc2c1 | -15.5 |
| Cn1c(O)c(C=NCCCNC2CCCCC2)c(=O)n(C)c1=O | 12 |
| CCOC(=O)C1CCN(C(=O)CCc2c(C)nc3cc(-c4ccccc4)nn3c2C)CC1 | -78.5 |
| CCOC(=O)c1cnn2c(C(F)F)cc(C3CC3)nc12 | 9.56 |
| COc1ccc(OC)c(CN2CCN(C(=O)COc3cccc(C)c3)CC2)c1.O=C(O)C(=O)O | -46.7 |
| Cc1cc(Cl)ccc1N1C(=O)CC(SCCC(=O)O)C1=O (stereo not shown) | 10.3 |
| S=c1[nH]nc(-c2ccc3ccccc3n2)n1-c1ccccc1Cl | 15.7 |
| OC(c1ccccc1)(c1ccccc1)c1ccn[nH]1 | 4.54 |
| Cc1c(NC(=O)CSC(=S)N2CCCC2)c(=O)n(-c2ccccc2)n1C | 3.94 |
| Cc1ccccc1NC(=O)c1oc(=O)c2ccccc2c1-c1ccccc1 | -1.57 |
| O=C(CSC1=NCCN1)C1COc2ccccc2O1 (stereo not shown) | -16.8 |
| O=C(CSc1nnc(Cn2cnc3ccccc32)o1)Nc1cccc2ccccc12 | 11.7 |
| Cc1nn(Cc2cccc(C(=O)Nc3ccn(Cc4ccccc4F)n3)c2)c(C)c1[N+](=O)[O-] | 6.24 |
| Cc1noc(C)c1C(=O)OCC(=O)Nc1c(F)cccc1F | 27 |
| COc1ccccc1C(=O)Nc1ccc2c(c1)nc(CN1CCN(C(C)=O)CC1)n2C | -80 |
| Cc1c(CCC(=O)O)c(=O)oc2c(C)c3occ(-c4ccc(Br)cc4)c3cc12 | 18.8 |
| COc1ccc(N(C)S(=O)(=O)c2cccc(C(=O)OCC(=O)Nc3sc4c(c3C#N)CCCCC4)c2)cc1 | 10.8 |
| NC(=O)N/N=C/c1ccc(-c2ccc([N+](=O)[O-])cc2)o1 | -25.6 |
| CCOC(=O)c1[nH]c(C)c(C(=O)Nc2ccccc2F)c1C | -11.2 |
| CCO[C@@H]1OC(C(=O)NCc2nc3ccccc3[nH]2)=C[C@H](C)[C@H]1CCCO | -31.1 |
| Cc1nc2ccccc2c(=O)n1/N=C/c1ccccc1O | 5.01 |
| COc1ccc(C(=O)NCC(=O)N/N=C/C(C)=C/c2ccccc2)cc1OC | -1.63 |
| Cc1nc2ccc([N+](=O)[O-])cc2c(=O)n1Cc1ccc([N+](=O)[O-])cc1 | -76.8 |
| Cc1ccc(C(=O)OC(C)C(=O)NC2CCCCC2C)s1 (stereo not shown) | -0.588 |
| O=C(O)c1cccc(COc2ccccc2Cl)c1 | 0.517 |
| O=C(CSc1ccccn1)Nc1cccc(S(=O)(=O)N2CCCC2)c1 | -13.2 |

| Compound | hERG current change (%, negative = inhibition) at 10uM [%] |
| --- | --- |
| Cc1ccccc1N1C(=O)c2ccccc2N2C(=O)c3ccccc3C12 (stereo not shown) | -22 |
| O=C(c1ccc(Cl)c(Cl)c1)N1CCC(=O)N(C(COCc2cccc(Cl)c2)Cc2ccccc2)CC1 (stereo not shown) | -4.62 |
| CCOC(=O)CN1C(=O)N[C@@H](c2ccccc2)C(C(C)=O)=C1C | 1.81 |
| CC(=O)Nc1cc(NC(C)=O)cc(C(=O)OCC(=O)N2CC(C)OC(C)C2)c1 (stereo not shown) | 4.95 |
| CC(=O)c1c2c3c(c(Br)ccc3n(C)c1=O)C(=O)c1ccccc1-2 | 2.39 |
| COc1ccc(N2CCC(CNS(=O)(=O)c3cccc(C(F)(F)F)c3)C2)cc1 (stereo not shown) | -0.336 |
| Cc1ccc(CNC(=O)c2cn(C)c(=O)c3c2c2ccccc2n3C)o1 | 9.89 |
| CCc1ccc(C(=O)COC(=O)CNC(=O)CNC(=O)Cc2ccccc2)cc1 | 9.36 |
| O=C1Nc2ccccc2C12OC1CCCCC1O2 (stereo not shown) | -45 |
| CCOC(=O)c1cccc(NC(=O)Cn2c(CC(=O)NC)nc3ccccc32)c1 | -3.06 |
| O=C(Nc1cccc(Cn2cccn2)c1)c1cc2c(s1)CCCC2 | -0.0832 |
| CC(C)NC(=O)c1ccccc1NC(=O)C1COc2ccccc2O1 (stereo not shown) | 24 |
| CCN(CC)c1ccc(/C=C2\NC(=O)NC2=O)cc1 | 19.5 |
| CC(=O)Nc1ccc2c(c1)nc(CCN1CCC(C)CC1)n2C | 8.83 |
| CCCCCCCn1c(=N)n(CC(O)c2ccco2)c2ccccc21.Cl (stereo not shown) | -86.9 |
| CC(C)CN1C(=O)c2ccc(C(=O)Nc3nccs3)cc2C1=O | 8.84 |
| CCCCC[n+]1ccn(C2=C([O-])c3ccccc3C(=O)/C2=N\S(=O)(=O)c2ccc(Cl)cc2)c1 | -3.54 |
| c1ccc2c3c([nH]c2c1)C1(CCNCC1)NCC3 | -6.06 |
| O=C(Cc1csc(-c2ccccc2)n1)Nc1ccc(C(F)(F)F)cc1 | 12.4 |
| Cn1c(SCC(=O)N2CCN(c3ccccc3)CC2)nnc1-c1cc2ccccc2o1 | -11.8 |
| COc1cccc(C(=O)NNC2=C(C(=O)C(F)(F)F)CCC2)c1 | 6.77 |
| CCOC(=O)NC(=O)CSc1nc(-c2ccc(C)c(C)c2)cn1-c1ccccc1 | -0.392 |
| CCn1c(-c2ccccc2)csc1=Nc1ccc(S(=O)(=O)O)cc1 | 15.2 |
| CC(=O)N1CCc2c(sc(NC(=O)C3CCCN3S(=O)(=O)c3cccs3)c2C(N)=O)C1 (stereo not shown) | -2.88 |
| COc1ccc2nc(NC(=O)c3ccc4ncsc4c3)sc2c1 | 22.2 |
| CCOc1ccc2nc(N3C(=O)C(O)=C(C(=O)c4ccco4)C3c3ccco3)sc2c1 (stereo not shown) | 17.7 |
| CN(C)c1c(F)cc(-c2nn[nH]n2)cc1F | 12.9 |
